Source: patent US20220267409A1 (KAHR MEDICAL, published 2022)

Legend:
[1] = biological target: T1, biotin-conjugated human recombinant 4-1BB protein (GenScript) (human, UniProt Q07011 24-186, biotin-conjugated); experiment: sandwich ELISA: plate coated with HLA-G 5 ug/mL, purified heterodimer 0-50 ug/mL, detection with 41BB-biotin and streptavidin-HRP
T1 construct: Detection reagent of the sandwich ELISA; also called biotinylated 4-1BB; 41BB-biotin
Experimental: (§1) Supernatants containing the heterodimer TSP214 or control supernatant (FIG. 28A) or purified TSP215 heterodimer (FIGS. 28B-C) were incubated in HLA-G, CD47 or BSA pre-coated 96-wells plates. Binding was detected by incubation with 41BB-biotin, followed by streptavidin-HRP and TMB substrate according to standard ELISA protocol using a plate reader at 450 nm, with reference at 620 nm.
(§2) Methods—Ninety-six-wells plates were pre-coated by incubating overnight at 4° C. with a recombinant CD47 protein, PDL1 protein, HLA-G protein or a mix of two proteins at equal-molar quantity. Following blocking and washing, serially diluted supernatant containing the produced PD1-4-3xsc1BBL, SIRPα-PD1-3xsc4-1BBL, 2xLILRB2-3xsc4-1BBL or LILRB2-SIRPα-3xsc4-1BBL heterodimers were added to the relevant pre-coated wells. Following an additional washing step, biotinylated 4-1BB or rabbit anti-anti-SIRPα antibody was added and allowed to bind to the 4-1BBL arm or SIRPα arm, respectively, of the heterodimer. The plates were washed again and streptavidin-HRP or goat anti-rabbit IgG antibody-HRP was added. Detection was effected with a TMB substrate according to standard ELISA protocol using a plate reader (Thermo Scientific, Multiscan FC).
No binding was detected to control plates coated with BSA only.

[2] = biological target: T2, human 4-1BB expressed on HT1080-4-1BB cells (human, UniProt Q07011 24-255); experiment: flow cytometry on HT1080-4-1BB cells (4-1BB and CD47), dilutions of supernatant, with or without anti-CD47 blocking antibody, detection with anti-LILRB2 antibody
T2 construct: whole, on cells; also called HT1080 4-1BB overexpressing cells
Experimental: (§3) The binding of the heterodimer to the 4-1BB and CD47 expressing cell line was determined following incubation of the cells with the heterodimer by immuno-staining of its LILRB2 domain using an anti-LILRB2 antibody, followed by flow cytometric analysis. For specificity testing, binding was determined in the absence or presence of an anti-CD47 blocking antibody, anti 4-1BB blocking antibody or a combination of both blocking antibodies.
(§4) Methods—Cells were incubated with serial dilutions of the produced heterodimers-containing supernatants for 20-30 minutes at 4° C., followed by immuno-staining with an antibody against PD1 or LILRB2 and analyzed by flow cytometry. In some cases, cells underwent pre-incubation with anti CD47 blocker antibody or anti-4-1BB blocker antibody prior to the incubation with the supernatants.

[3] = biological target: T3, human CD47 expressed on cells (CHO-K1-CD47; endogenous on DLD1 and HT1080 cells) (human, UniProt Q08722); experiment: flow cytometry on HT1080-4-1BB cells (4-1BB and endogenous CD47), dilutions of supernatant, anti-4-1BB blocking antibody alone or with anti-CD47 blocking antibody, detection with anti-LILRB2 antibody
T3 construct: whole, on cells
Experimental: as §3, §4

BSA = biological target: T4, BSA (UniProt P02769); experiment: sandwich ELISA: plate coated with BSA 10 ug/mL, purified heterodimer 0-50 ug/mL, detection with 41BB-biotin and streptavidin-HRP
T4 construct: Negative control coating of the ELISA; also called BSA only control plates
Experimental: as §1, §2

Chain of UniProt Q08722 (Q08722 19-323): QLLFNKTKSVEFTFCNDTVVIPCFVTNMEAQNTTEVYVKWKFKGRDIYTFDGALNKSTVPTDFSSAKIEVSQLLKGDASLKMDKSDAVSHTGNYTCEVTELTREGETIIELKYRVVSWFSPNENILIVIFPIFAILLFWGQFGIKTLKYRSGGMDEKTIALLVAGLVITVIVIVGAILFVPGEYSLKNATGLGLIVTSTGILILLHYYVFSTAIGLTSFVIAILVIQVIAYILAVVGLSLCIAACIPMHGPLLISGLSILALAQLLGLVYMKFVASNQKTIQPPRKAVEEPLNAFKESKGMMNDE
Chain of BSA (P02769 25-607 limits assumed): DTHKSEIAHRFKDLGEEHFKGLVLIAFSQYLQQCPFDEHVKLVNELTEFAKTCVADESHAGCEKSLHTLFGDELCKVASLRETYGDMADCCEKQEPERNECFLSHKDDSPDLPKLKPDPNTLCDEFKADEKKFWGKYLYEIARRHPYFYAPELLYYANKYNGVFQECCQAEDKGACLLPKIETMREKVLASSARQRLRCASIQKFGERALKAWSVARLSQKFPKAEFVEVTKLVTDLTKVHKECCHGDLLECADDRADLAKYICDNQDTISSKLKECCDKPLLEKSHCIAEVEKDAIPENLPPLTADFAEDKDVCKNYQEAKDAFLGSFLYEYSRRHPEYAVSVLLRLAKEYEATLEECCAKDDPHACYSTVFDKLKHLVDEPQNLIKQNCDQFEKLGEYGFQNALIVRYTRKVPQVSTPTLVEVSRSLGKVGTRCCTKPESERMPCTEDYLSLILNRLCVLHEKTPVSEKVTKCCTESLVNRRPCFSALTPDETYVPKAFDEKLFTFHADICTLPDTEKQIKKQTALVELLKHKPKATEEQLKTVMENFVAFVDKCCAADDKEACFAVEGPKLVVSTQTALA

B1: LILRB2-SIRPα-Fc-3xsc4-1BBL heterodimer TSP215 (SEQ ID NOs: 138 and 85) (Fc fusion)
chain 1: QTGTIPKPTLWAEPDSVITQGSPVTLSCQGSLEAQEYRLYREKKSASWITRIRPELVKNGQFHIPSITWEHTGRYGCQYYSRARWSELSDPLVLVMTGAYPKPTLSAQPSPVVTSGGRVTLQCESQVAFGGFILCKEGEEEHPQCLNSQPHARGSSRAIFSVGPVSPNRRWSHRCYGYDLNSPYVWSSPSDLLELLVPGVSKKPSLSVQPGPVVAPGESLTLQCVSDVGYDRFVLYKEGERDLRQLPGRQPQAGLSQANFTLGPVSRSYGGQYRCYGAHNLSSECSAPSDPLDILITGQIRGTPFISVQPGPTVASGENVTLLCQSWRQFHTFLLTKAGAADAPLRLRSIHEYPKYQAEFPMSPVTSAHAGTYRCYGSLNSDPYLLSHPSEPLELVVSGGGGSGGGGSGGGGS[human IgG4 Fc with S228P L235E Y349C T366W (EU numbers) omitted here]
chain 2: [about 350 residues omitted here]GGGGSGGGGSESKYGPPCPPCPAPEFEGGPSVFLFPPKPKDTLMISRTPEVTCVVVDVSQEDPEVQFNWYVDGVEVHNAKTKPREEQFNSTYRVVSVLTVLHQDWLNGKEYKCKVSNKGLPSSIEKTISKAKGQPREPQVYTLPPSQCEMTKNQVSLSCAVKGFYPSDIAVEWESNGQPENNYKTTPPVLDSDGSFFLVSRLTVDKSRWQEGNVFSCSVMHEALHNHYTQKSLSLSLGKGGGGSGGGGSAASPRLREGPELSPDDPAGLLDLRQGMFAQLVAQNVLLIDGPLSWYSDPGLAGVSLTGGLSYKEDTKELVVAKAGVYYVFFQLELRRVVAGEGSGSVSLALHLQPLRSAAGAAALALTVDLPPASSEARNSAFGFQGRLLHLSAGQRLGVHLHTEARARHAWQLTQGATVLGLFRVTPEIPAGLPSPRSEGGGGSGGGGSGGGGSAASPRLREGPELSPDDPAGLLDLRQGMFAQLVAQNVLLIDGPLSWYSDPGLAGVSLTGGLSYKEDTKELVVAKAGVYYVFFQLELRRVVAGEGSGSVSLALHLQPLRSAAGAAALALTVDLPPASSEARNSAFGFQGRLLHLSAGQRLGVHLHTEARARHAWQLTQGATVLGLFRVTPEIPAGLPSPRSEGGGGSGGGGSGGGGSAASPRLREGPELSPDDPAGLLDLRQGMFAQLVAQNVLLIDGPLSWYSDPGLAGVSLTGGLSYKEDTKELVVAKAGVYYVFFQLELRRVVAGEGSGSVSLALHLQPLRSAAGAAALALTVDLPPASSEARNSAFGFQGRLLHLSAGQRLGVHLHTEARARHAWQLTQGATVLGLFRVTPEIPAGLPSPRSE
notes: Knob-into-hole hIgG4 Fc heterodimer made in Expi293F cells; also called DSP215; LILRB2-SIRPα-sc3x4-1BBL heterodimer
B1: binds [1]; binds [2]; binds [3]. B1: no binding (tested: 50 ug/mL) (BSA).
